This passage reports binding signal results from article PMC6212790.

The other results are listed elsewhere or left out. At the low end of the ranking the order means little.

The experiment addresses T1, GST-Rok-C97-191 (UniProt O34857).
T1 sequence: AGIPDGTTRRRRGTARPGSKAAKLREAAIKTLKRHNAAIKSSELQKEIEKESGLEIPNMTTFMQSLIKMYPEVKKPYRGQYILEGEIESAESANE
Kind of experiment: protein binding microarray.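 Further: rank score from −0.5 (least bound) to 0.5 (best bound).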 The note with it: Rok is a gene silencer of Bacillus subtilis; high values mean tight binding; most listed sequences are background and not binding sites; double strand, one strand shown.
As to CCGGTTCG, the binding signal is -0.187 E-score.
Turning to CGTTCCCC, the binding signal was -0.316 E-score.
The sequence CAGGGATG showed a binding signal of -0.105 E-score.
As to AGATCCCC, the binding signal was -0.144 E-score.
In turn, AGAGATTA showed a binding signal of 0.127 E-score.
To GCGTCTAC belongs -0.0576 E-score.
Then CCATCAAA, with 0.039 E-score.
Sequence CAAGTCTG showed a binding signal of -0.143 E-score.
In turn, ATAATTGA returned a binding signal of 0.15 E-score.
With ATAATAAA, the binding signal amounted to 0.321 E-score.
CACAATCA displayed a binding signal of -0.0271 E-score.
The sequence CTGCTCGA displayed a binding signal of -0.33 E-score.
As for GCATGAGC, the binding signal is -0.108 E-score.
Turning to ACGGCAGG, the binding signal was -0.0894 E-score.
Then ATCATCCA, with 0.112 E-score.
Turning to GTCAGACA, the binding signal was -0.0182 E-score.
For the sequence AGAACGGG, the binding signal was -0.199 E-score.
AACGGACG had a binding signal of -0.263 E-score.
To GGGAGCCA belongs -0.278 E-score.
To ATAGTGAA belongs 0.112 E-score; to ACTATCCA, 0.0548 E-score; to CCTTTAAG, -0.088 E-score.
In turn, ACACGGGA showed a binding signal of -0.268 E-score.
GTGCTATA gave a binding signal of 0.202 E-score.
Turning to CCCACATA, the binding signal is 0.0313 E-score.
In turn, ATCACGAT yielded a binding signal of 0.0396 E-score.
The sequence CAAAATGC had a binding signal of 0.175 E-score.
With ACGCCGCA, the binding signal is -0.186 E-score.
In the case of CGTAATGC, the binding signal turned out to be 0.0364 E-score.
On to CTAAAACA, for which the binding signal is 0.0948 E-score.
Then CCGATTTA, with 0.0828 E-score.
ATAGGAAC returned a binding signal of 0.168 E-score.
Then GCTAAAGC, with -0.0334 E-score.
Then CGGATGTC, with -0.0536 E-score.
Then GGAACTCA, with -0.0516 E-score; and ATTACACC, with 0.0768 E-score.
CGACGCAA displayed a binding signal of 0.0483 E-score.
The sequence AACCCGTA displayed a binding signal of 0.057 E-score.
Sequence CAACAACC gave a binding signal of -0.059 E-score.
In turn, GGCACTGA gave a binding signal of -0.0696 E-score.
For CTAAAGGC, the binding signal is -0.103 E-score.
In turn, TATATTAA came in with a binding signal of 0.387 E-score.
In turn, GGGTTCAA registered a binding signal of -0.0476 E-score.
Then AGGCCACT, with -0.0761 E-score.
As for ACGATCCC, the binding signal was -0.22 E-score.
Then CCAATCAA, with -0.223 E-score; and ACGCAGCG, with -0.237 E-score.
Then ACTTACAC, with 0.158 E-score; and ACTTCAGA, with 0.0388 E-score; and AGAAATCT, with 0.319 E-score.
GTGGTGAA had a binding signal of 0.017 E-score.
Sequence CTACAAGA came in with a binding signal of 0.16 E-score.
In the case of CATCCAAC, the binding signal is -0.0608 E-score.
For the sequence CACTAGTC, the binding signal came to 0.0907 E-score.
CGCCCCTC registered a binding signal of -0.232 E-score.
Then CGGTAAAA, with 0.242 E-score.
For the sequence CCACTAAC, the binding signal is 0.0126 E-score.
AACCTGAT yielded a binding signal of 0.0968 E-score.
On to CTTAATCA, for which the binding signal amounted to 0.074 E-score.
As for CAGATTGA, the binding signal was -0.142 E-score.
ACTTCTCT registered a binding signal of 0.133 E-score.
Sequence ATGGCAAA returned a binding signal of 0.00996 E-score.
To AAGTGACT belongs -0.0548 E-score; to ACCGGAAC, -0.0713 E-score.
Then CGCTTATC, with 0.0476 E-score.
For ATCGAGTC, the binding signal came to 0.0553 E-score.
In the case of GTGCCGTA, the binding signal is 0.0486 E-score.
CGTGCATA displayed a binding signal of 0.213 E-score.
CCACTTTA had a binding signal of 0.00693 E-score.
ACAGGTGC showed a binding signal of -0.0636 E-score.
ACTATTCG showed a binding signal of 0.259 E-score.
To AACTTACG belongs 0.0653 E-score; to CGCCACGA, -0.123 E-score; to CGAGCTTA, -0.195 E-score.
Regarding AGGATCGC, the binding signal was -0.173 E-score.
As to AAACGCCT, the binding signal is -0.107 E-score.
To CCAGTGGC belongs -0.218 E-score.
Then CAGCCAGG, with -0.124 E-score; and CGGTTAGC, with -0.121 E-score.
With TATCAACA, the binding signal was found to be 0.145 E-score.
For ATCCGTAC, the binding signal is 0.0821 E-score.
For the sequence TCAAGTAA, the binding signal worked out at 0.165 E-score.
Sequence AATGTCGT showed a binding signal of -0.087 E-score.
The sequence GAGTTCCA displayed a binding signal of -0.0619 E-score.
Take GTTGGGAA: the binding signal was -0.000542 E-score.
The sequence GAGGACAA came in with a binding signal of -0.0911 E-score.
The sequence GGCGCTGA registered a binding signal of -0.181 E-score.
For the sequence ACTTCGAG, the binding signal was -0.0256 E-score.
The sequence CCCCCCCG displayed a binding signal of -0.197 E-score.
Sequence CCGGTGAC displayed a binding signal of -0.192 E-score.
For CATTCCGA, the binding signal was -0.0936 E-score.
In the case of GGTTAAGA, the binding signal is 0.0752 E-score.
AGAATTTG registered a binding signal of 0.161 E-score.
Then CCCCGCGA, with -0.24 E-score.
In turn, GGTGGTAC gave a binding signal of -0.0595 E-score.
To GATACTCC belongs 0.118 E-score; to GGGTGCAC, -0.234 E-score; to GCAGGCCA, -0.453 E-score.
As to GCAATTAA, the binding signal came out at 0.155 E-score.
On to GGTCTCAC, for which the binding signal is -0.0261 E-score.
Take CTCGCCCA: the binding signal is -0.297 E-score.
In turn, AATAAAGA gave a binding signal of 0.054 E-score.
To CACAAGCA belongs -0.0543 E-score; to AATGTCGA, 0.0236 E-score.
Regarding CTAGAGTC, the binding signal was -0.0299 E-score.
Turning to GCGACGAA, the binding signal was found to be 0.103 E-score.
Sequence CTGTCCAC displayed a binding signal of -0.0896 E-score.
On to GGCGATCA, for which the binding signal amounted to 0.0161 E-score.
Then CTGATCGA, with -0.0841 E-score.
Then AGTGGTAG, with 0.378 E-score.
Regarding AGGATGTG, the binding signal was -0.00613 E-score.
For the sequence AACTTAGT, the binding signal turned out to be 0.299 E-score.
On to AGGGTTCC, for which the binding signal is -0.181 E-score.
In turn, ACATTTAG displayed a binding signal of 0.146 E-score.
To CAGATGTA belongs 0.212 E-score; to TGCGGCCA, -0.0579 E-score.
For the sequence ATAAGGGC, the binding signal is -0.112 E-score.
To ACTATATA belongs 0.437 E-score; to AGGGGCCG, -0.404 E-score; to CCCATGTC, -0.141 E-score.
GATGCGGC had a binding signal of -0.254 E-score.
To AAATCAAC belongs 0.139 E-score; to AGAGTCAT, 0.0549 E-score.
For the sequence ACGCGTAC, the binding signal was -0.161 E-score.
Then CGCTGAAA, with -0.0809 E-score.
ACGTACAA: the binding signal was 0.214 E-score.
CTTATCCC gave a binding signal of -0.0531 E-score.
Sequence ATTGAAAG showed a binding signal of -0.0548 E-score.
Then CATGGTAA, with 0.206 E-score; and CCTCAAAA, with -0.175 E-score; and AGGGGTAA, with -0.0263 E-score.
To GTCGCCGA belongs -0.138 E-score; to ACTGAGTC, -0.137 E-score; to GAGCATCA, -0.097 E-score.
For CGCATGTA, the binding signal was 0.0887 E-score.
Regarding ATTCAAAC, the binding signal amounted to 0.00339 E-score.
Sequence ATGAATCA yielded a binding signal of -0.0987 E-score.
In turn, AAATCATA showed a binding signal of 0.164 E-score.
The sequence ACTGTAGC yielded a binding signal of 0.134 E-score.
For ATCTGAGA, the binding signal was -0.0965 E-score.
ACAACCGA: the binding signal is 0.0107 E-score.
TGGAAAAA showed a binding signal of 0.14 E-score.
On to AAGAGGCA, for which the binding signal was -0.199 E-score.
For AGAGGTTC, the binding signal is -0.316 E-score.
TGATAAAA showed a binding signal of 0.282 E-score.
Turning to GCCGTGAA, the binding signal is -0.176 E-score.
CTCATGTC came in with a binding signal of -0.127 E-score.
Turning to ATAAGTAA, the binding signal turned out to be 0.236 E-score.
Sequence AAAATATG had a binding signal of 0.271 E-score.
In turn, ATCATTTA registered a binding signal of 0.279 E-score.
As to CAATAATA, the binding signal was 0.312 E-score.
In turn, CTATTACC had a binding signal of 0.312 E-score.
Turning to ACTCCGAA, the binding signal was determined as 0.0133 E-score.
Then CCACGTCA, with -0.0182 E-score; and AGGGCACG, with -0.437 E-score; and CTGACGAA, with -0.0673 E-score.
As to GTGGGCGA, the binding signal was -0.102 E-score.
ATAACGTC came in with a binding signal of 0.17 E-score.
CCGTCGAA gave a binding signal of 0.0267 E-score.
The sequence AAGTAAAA yielded a binding signal of 0.335 E-score.
Sequence AGAAGAGC showed a binding signal of -0.112 E-score.
To TTAGTAAA belongs 0.21 E-score; to ACTCTTCC, -0.0663 E-score; to GCCCGCCC, -0.366 E-score.
To ACTTATGC belongs 0.0362 E-score.
In turn, CTAGCGTC registered a binding signal of 0.0675 E-score.
Turning to GGGCAAGA, the binding signal was -0.0879 E-score.
As for AGTTCCGA, the binding signal is 0.0796 E-score.
Turning to GCGTAAAC, the binding signal was found to be 0.0786 E-score.
Turning to AAACCCGT, the binding signal is -0.109 E-score.
In the case of ATGCAGCC, the binding signal is -0.133 E-score.
On to CCATCGAC, for which the binding signal was -0.132 E-score.
